# Results taken from paper PMC12820563, “FoxP3 forms a head-to-head dimer in vivo and stabilizes its multimerization on adjacent microsatellites”.
# Some of the results follow.
# Molecular target: T1, MBP-FoxP1dN (Mus musculus, UniProt P58462 326-579)
# T1 sequence: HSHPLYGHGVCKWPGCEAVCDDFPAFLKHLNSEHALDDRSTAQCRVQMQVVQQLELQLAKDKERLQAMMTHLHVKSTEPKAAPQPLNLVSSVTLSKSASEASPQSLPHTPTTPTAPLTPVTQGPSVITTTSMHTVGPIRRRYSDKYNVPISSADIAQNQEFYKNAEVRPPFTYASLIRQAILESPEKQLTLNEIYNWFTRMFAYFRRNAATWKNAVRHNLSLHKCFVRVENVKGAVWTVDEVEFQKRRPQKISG
# Assay: PD-seq (MBP pull-down with sequencing); 20 mM Tris-HCl pH 7.5, 100 mM NaCl, 1.5 mM MgCl2, 0.4 uM protein, 0.1 uM dsDNA library, 30 min, room temperature, amylose pull-down; high values mean tight binding
# Conditions: protein: recombinant; tags: His6-MBP; chain copies: 2; dsDNA, one strand shown
# In short: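 Binding is given as reads-per-million enrichment, pull-down over input, with replicates pooled. The bait was an N-terminus-lacking mouse FoxP3 or FoxP1 fragment with a His6-MBP tag, expressed in E. coli and used at 0.4 µM with 0.1 µM Klenow-filled degenerate double-stranded DNA library for 30 min at room temperature in Tris pH 7.5 buffer with NaCl and MgCl2. Amylose resin pull-down with three washes was followed by proteinase K release, PCR barcoding and Illumina sequencing.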
row,Sequence,binding signal
1,GATGATTGTTCTCCCAGCTGATGAATTCGGGCGGTCGAGTAAACAAATTTTCCTAATCTTTCTGTTCAAGCGCCATCTAC,0.722 RPM ratio (pull-down/input)
2,GATGATTGTTCTCCCAGCTGATGAATTTCGAAGTTCGAGTAAACAAATTTTCCTAATCTTTCTGTTCAAGCGCCATCTAC,0.82 RPM ratio (pull-down/input)
3,GATGATTGTTCTCCCAGCTGATGAATTCCGTGCTTCGAGTAAACAAATTTTCCTAATCTTTCTGTTCAAGCGCCATCTAC,0.862 RPM ratio (pull-down/input)
4,GATGATTGTTCTCCCAGCTGATGAATTACCTTTATCGAGTAAACAAATTTTCCTAATCTTTCTGTTCAAGCGCCATCTAC,1.05 RPM ratio (pull-down/input)
5,GATGATTGTTCTCCCAGCTGATGAATTATTCGCTTCGAGTAAACAAATTTTCCTAATCTTTCTGTTCAAGCGCCATCTAC,0.991 RPM ratio (pull-down/input)
6,GATGATTGTTCTCCCAGCTGATGAATTATCATTCTCGAGTAAACAAATTTTCCTAATCTTTCTGTTCAAGCGCCATCTAC,0.997 RPM ratio (pull-down/input)
7,GATGATTGTTCTCCCAGCTGATGAATTTGGAGTGTCGAGTAAACAAATTTTCCTAATCTTTCTGTTCAAGCGCCATCTAC,0.878 RPM ratio (pull-down/input)
8,GATGATTGTTCTCCCAGCTGATGAATTACCTCGTTCGAGTAAACAAATTTTCCTAATCTTTCTGTTCAAGCGCCATCTAC,0.946 RPM ratio (pull-down/input)
9,GATGATTGTTCTCCCAGCTGATGAATTGGGAGGTTCGAGTAAACAAATTTTCCTAATCTTTCTGTTCAAGCGCCATCTAC,0.78 RPM ratio (pull-down/input)
10,GATGATTGTTCTCCCAGCTGATGAATTTGTCGTATCGAGTAAACAAATTTTCCTAATCTTTCTGTTCAAGCGCCATCTAC,1.23 RPM ratio (pull-down/input)
11,GATGATTGTTCTCCCAGCTGATGAATTGCTAAGCTCGAGTAAACAAATTTTCCTAATCTTTCTGTTCAAGCGCCATCTAC,0.999 RPM ratio (pull-down/input)
12,GATGATTGTTCTCCCAGCTGATGAATTACCGGGCTCGAGTAAACAAATTTTCCTAATCTTTCTGTTCAAGCGCCATCTAC,0.841 RPM ratio (pull-down/input)
13,GATGATTGTTCTCCCAGCTGATGAATTCGCCTGGTCGAGTAAACAAATTTTCCTAATCTTTCTGTTCAAGCGCCATCTAC,0.731 RPM ratio (pull-down/input)
14,GATGATTGTTCTCCCAGCTGATGAATTTCACATTTCGAGTAAACAAATTTTCCTAATCTTTCTGTTCAAGCGCCATCTAC,0.877 RPM ratio (pull-down/input)
15,GATGATTGTTCTCCCAGCTGATGAATTCCCCGAGTCGAGTAAACAAATTTTCCTAATCTTTCTGTTCAAGCGCCATCTAC,0.703 RPM ratio (pull-down/input)
16,GATGATTGTTCTCCCAGCTGATGAATTATTTCAATCGAGTAAACAAATTTTCCTAATCTTTCTGTTCAAGCGCCATCTAC,1.11 RPM ratio (pull-down/input)

row,Sequence,binding signal
1,GATGATTGTTCTCCCAGCTGATGAATTGTACATGTCGAGTAAACAAATTTTCCTAATCTTTCTGTTCAAGCGCCATCTAC,1.02 RPM ratio (pull-down/input)
2,GATGATTGTTCTCCCAGCTGATGAATTTGCAAAATCGAGTAAACAAATTTTCCTAATCTTTCTGTTCAAGCGCCATCTAC,1.13 RPM ratio (pull-down/input)
3,GATGATTGTTCTCCCAGCTGATGAATTGCGTTGCTCGAGTAAACAAATTTTCCTAATCTTTCTGTTCAAGCGCCATCTAC,1.07 RPM ratio (pull-down/input)
4,GATGATTGTTCTCCCAGCTGATGAATTGTTTGAGTCGAGTAAACAAATTTTCCTAATCTTTCTGTTCAAGCGCCATCTAC,1.25 RPM ratio (pull-down/input)
5,GATGATTGTTCTCCCAGCTGATGAATTCGACTACTCGAGTAAACAAATTTTCCTAATCTTTCTGTTCAAGCGCCATCTAC,0.808 RPM ratio (pull-down/input)
6,GATGATTGTTCTCCCAGCTGATGAATTACCGACTTCGAGTAAACAAATTTTCCTAATCTTTCTGTTCAAGCGCCATCTAC,0.948 RPM ratio (pull-down/input)
7,GATGATTGTTCTCCCAGCTGATGAATTTGGGAGATCGAGTAAACAAATTTTCCTAATCTTTCTGTTCAAGCGCCATCTAC,0.793 RPM ratio (pull-down/input)
8,GATGATTGTTCTCCCAGCTGATGAATTTACACCTTCGAGTAAACAAATTTTCCTAATCTTTCTGTTCAAGCGCCATCTAC,1.33 RPM ratio (pull-down/input)
9,GATGATTGTTCTCCCAGCTGATGAATTCCCTCTTTCGAGTAAACAAATTTTCCTAATCTTTCTGTTCAAGCGCCATCTAC,0.822 RPM ratio (pull-down/input)
10,GATGATTGTTCTCCCAGCTGATGAATTTATTGATTCGAGTAAACAAATTTTCCTAATCTTTCTGTTCAAGCGCCATCTAC,1.86 RPM ratio (pull-down/input)
11,GATGATTGTTCTCCCAGCTGATGAATTTCTTGCCTCGAGTAAACAAATTTTCCTAATCTTTCTGTTCAAGCGCCATCTAC,0.862 RPM ratio (pull-down/input)
12,GATGATTGTTCTCCCAGCTGATGAATTATCACAGTCGAGTAAACAAATTTTCCTAATCTTTCTGTTCAAGCGCCATCTAC,0.984 RPM ratio (pull-down/input)
13,GATGATTGTTCTCCCAGCTGATGAATTCGTCTAATCGAGTAAACAAATTTTCCTAATCTTTCTGTTCAAGCGCCATCTAC,0.982 RPM ratio (pull-down/input)
14,GATGATTGTTCTCCCAGCTGATGAATTACGTAGGTCGAGTAAACAAATTTTCCTAATCTTTCTGTTCAAGCGCCATCTAC,0.883 RPM ratio (pull-down/input)
15,GATGATTGTTCTCCCAGCTGATGAATTGGTCACATCGAGTAAACAAATTTTCCTAATCTTTCTGTTCAAGCGCCATCTAC,1.12 RPM ratio (pull-down/input)
